Assay results as given in PubChem BioAssay AID588342 (National Center for Advancing Translational Sciences (NCATS), 2011).
Where “and” joins values, the source holds several entries; their conditions need not be identical. Equal entries are not always repeated. Hit rate of the full screen: of about 360,000 compounds, about 25,000 (6.9%) were called active. The shares of active, inactive and inconclusive entries below differ from those in the screen. The call rests on the fitted dose curve; in most records, active means well fitted inhibition curve with a large enough effect; inconclusive means small, poorly fitted or top-dose-only effect; inactive means flat fitted curve, though single readings scatter. Where the call is inconclusive, the potency comes from a doubtful curve fit.

These molecules were tested against Luciferin 4-monooxygenase (Photinus pyralis) (UniProt P08659) (assay: qHTS profiling assay for firefly luciferase inhibitor/activator using purifed enzyme and Km concentrations of substrates (counterscreen for miR-21 project)). Conditions: purified FLuc, luminescence inhibition; series mostly up to 57.5 µM; activity change, negative = inhibition: at the top concentration.
Summary of the method: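 Purified P. pyralis luciferase, 10 nM final, with Km-level 10 uM D-luciferin and 10 uM ATP in 50 mM Tris acetate pH 7.5, 10 mM Mg acetate, 0.01% Tween-20, 0.05% BSA; 6-point qHTS titration about 60 µM downward; luminescence read.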
Further: nearly all actives have a fitted effect of over 55% in size.
Potency means the concentration at half of the fitted maximal effect; tags describe the fitted curve by direction and shape.
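Wherever activity change, negative = inhibition is given: plate controls were vehicle for no effect and reference inhibitor for full effect.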

Sequence of UniProt P08659 (P08659 whole entry, looked up): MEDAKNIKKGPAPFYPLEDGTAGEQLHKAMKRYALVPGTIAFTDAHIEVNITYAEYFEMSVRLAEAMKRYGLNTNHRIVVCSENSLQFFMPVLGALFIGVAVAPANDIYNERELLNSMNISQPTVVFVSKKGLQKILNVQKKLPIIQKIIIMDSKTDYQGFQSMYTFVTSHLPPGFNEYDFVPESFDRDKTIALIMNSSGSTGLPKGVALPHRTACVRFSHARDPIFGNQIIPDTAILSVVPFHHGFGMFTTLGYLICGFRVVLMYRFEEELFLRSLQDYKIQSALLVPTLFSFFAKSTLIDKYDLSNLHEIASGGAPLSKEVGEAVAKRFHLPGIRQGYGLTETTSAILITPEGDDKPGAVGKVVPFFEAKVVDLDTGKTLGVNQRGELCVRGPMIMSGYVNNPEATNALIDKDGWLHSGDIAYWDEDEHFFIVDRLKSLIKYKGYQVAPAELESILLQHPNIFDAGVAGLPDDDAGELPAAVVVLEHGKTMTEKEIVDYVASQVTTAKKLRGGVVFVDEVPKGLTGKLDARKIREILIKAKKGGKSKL

SMILES	activity change, negative = inhibition	Potency
CCN(CC)CCCNC(=O)C(C)n1nc(C)n2c(cc3occc32)c1=O (stereo not given)	inactive: 2.42%	
CC1(C)CCc2cc(-c3ccnc(=S)[nH]3)ccc2O1		active: 10.7 µM
CCOc1ccc2nc(N3CCN(C(=O)C(C)C)CC3)sc2c1		inconclusive: 21.3 µM [inhibitor, partial curve, poor fit]
O=c1[nH]c2ccc(NS(=O)(=O)c3ccc(F)cc3)cc2s1	inactive: -9.01%	
Cc1c(C(=O)N2CCCC2)sc(NC(=O)c2ccc(Cl)cc2)c1C#N		inconclusive: 33.8 µM [inhibitor, single point]
COc1ccc2oc(=O)cc(CN3CCN(C(=O)c4ccccc4Br)CC3)c2c1	inactive: -0.257%	
O=C(NCc1cccs1)c1csc2c1CCCCC2	inactive: -18.8%	
CC(Sc1nc2ccccc2s1)C(=O)c1c(N)n(C)c(=O)n(C)c1=O (stereo not given)		inconclusive: 26.9 µM [inhibitor, partial curve]
Nc1cc(=O)[nH]c(SCC(=O)N2N=C(c3ccc(Cl)cc3)CC2c2ccco2)n1 (stereo not given)		inconclusive: 37.9 µM [inhibitor, partial curve, poor fit]
Cc1cccc(NC(=O)CSc2nc3ccccc3nc2N2CCCC2)c1C	inactive: -6.76%	
Cc1cc(NC(=O)Nc2ccccc2Cl)no1		active: 15.1 µM
O=C1OC(/C=C/c2ccccc2)=NC/1=C\c1cccnc1		inconclusive: 13.5 µM [inhibitor, partial curve, poor fit]
CCN(CC)C(=O)COC(=O)c1cc(-c2ccc(OC)cc2)nc2ccccc12		active: 7.57 µM
CNC(=O)CSc1nnc(SCCC(=O)O)s1	inactive: 3.95%	
CC(C)CC(=O)Nc1c2c(nn1-c1cccc(Cl)c1)CS(=O)(=O)C2	inactive: 2.17%	
Cc1ccc(OCCNc2cc(N3CCN(CCO)CC3)ccc2[N+](=O)[O-])cc1C		active: 23.9 µM
Oc1ccccc1-c1nc(/C=C/c2ccccc2)nn1-c1ccccc1		inconclusive: 21.3 µM [inhibitor, partial curve] and inconclusive: 13.5 µM [inhibitor, partial curve]
Cc1ccc(C(=O)O/N=C/c2c(N3CCOCC3)n(C)c3ccccc23)cc1		active: 6.01 µM
CCOC(=O)c1c(-c2ccc(OC)cc2)csc1/N=C/C1C(=O)CCCC1=O		inconclusive: 26.9 µM [inhibitor, partial curve, poor fit]
COc1cc(NC(=O)c2ccc(F)cc2)c(OC)cc1NC(=O)CN1CCCCC1		inconclusive: 26.9 µM [inhibitor, partial curve, poor fit]
CCOc1ccc(CCNC(=O)c2ccc(C)c(-n3cnc4cccnc43)c2)cc1		inconclusive: 30.1 µM [inhibitor, partial curve, poor fit]
Cc1c(O)ccc2c(CN(C)Cc3ccccc3)cc(=O)oc12		inconclusive: 37.9 µM [inhibitor, partial curve, poor fit]
Cc1ccc(C(C)C)c(OCc2ccc(C(=O)Nc3ccc(S(N)(=O)=O)cc3C)o2)c1	inactive: -13.3%	
COc1cccc(CNC(=O)c2ccc3c(Cl)c4c(nc3c2)CCCC4)c1		inconclusive: 12 µM [inhibitor, partial curve, poor fit]

SMILES	activity change, negative = inhibition	Potency
COc1ccc(-c2csc(NC(=O)c3ccc(OCC(=O)N4CCOCC4)c(OC)c3)n2)cc1		active: 16.9 µM
O=C1c2ccccc2S(=O)(=O)N1CC(O)COc1ccc(Br)cc1 (stereo not given)		inconclusive: 26.9 µM [inhibitor, single point]
Cc1ccc(S(=O)(=O)N2CCC(c3nnc(-c4cccc(C)c4)o3)CC2)cc1		inconclusive: 7.57 µM [inhibitor, partial curve, poor fit]
CCN(CC)c1ccc(/C=N/NC(=O)OC)c(O)c1		active: 10.7 µM
COc1cc(/C=N\NC(=O)C(C)(C)O)ccc1OC/C=C/c1ccccc1		inconclusive: 37.9 µM [inhibitor, partial curve, poor fit]
c1ccc2oc(-c3csc(NCC4CCCO4)n3)cc2c1 (stereo not given)		active: 1.51 µM
COC(=O)CSc1nnc(-c2cccc(O)c2)o1		inconclusive: 26.9 µM [inhibitor, single point]
Cc1ccc(-c2csc(NC(=O)Cc3cccs3)n2)cc1C		inconclusive: 4.78 µM [inhibitor, partial curve, poor fit]
CN(C)c1ccc(/C=N/NC(=O)c2ccccc2)cc1		active: 5.36 µM
Nc1nc(Nc2cccc(F)c2)nc(NCc2ccco2)c1[N+](=O)[O-]		inconclusive: 37.9 µM [inhibitor, single point]
CN(C)c1ccc(N=Cc2nc(-c3ccccc3)oc2OC(=O)c2cccc(Br)c2)cc1		inconclusive: 9.53 µM [inhibitor, partial curve]
c1ccc(N2CC3CCc4ccccc4C3=N2)cc1 (stereo not given)		active: 8.49 µM
Cc1ccccc1NC(=O)CSc1nnc(CNC(=O)c2ccc3c(c2)OCO3)n1C		inconclusive: 26.9 µM [inhibitor, single point]
O=C(Nn1cnnc1)c1cc(-c2cccc(Br)c2)nc2ccccc12		active: 0.849 µM
CCOC(=O)Cc1csc(NC(=S)NC(=O)c2ccc([N+](=O)[O-])cc2)n1		inconclusive: 21.3 µM [inhibitor, single point]
C/C(N)=C(/C#N)C(=O)COC(=O)c1cccc2ccccc12		inconclusive: 30.1 µM [inhibitor, single point]
Cc1cc2c(=O)oc(-c3ccccc3Br)nc2s1		active: 7.57 µM
Cc1cc(/C=C2\SC(=Nc3ccccc3)NC2=O)c(C)n1-c1ccc(S(N)(=O)=O)cc1		inconclusive: 13.5 µM [inhibitor, partial curve, poor fit]
CCn1c(=O)c2cc(C(=O)NCCc3ccc(OC)c(OC)c3)sc2c2ccccc21	inactive: -8.13%	
O=C(O)CN1C(=O)/C(=C\c2cccc(OCc3ccc(Cl)cc3Cl)c2)SC1=S		inconclusive: 26.9 µM [inhibitor, single point]
COc1ccc2cc(C(=O)C3CCCN(C(=O)c4cccnc4)C3)ccc2c1 (stereo not given)	inactive: -2.56%	
COc1ccccc1Nc1nc2nonc2[nH]c1=O		inconclusive: 19 µM [inhibitor, partial curve, poor fit]
O=C(Cn1cc(S(=O)(=O)Cc2cccc(F)c2)c2ccccc21)N1CCOCC1	inactive: 0.793%	
CCOc1ccc(N(CC(=O)Nc2cc(C)cc(C)c2)S(C)(=O)=O)cc1		inconclusive: 23.9 µM [inhibitor, partial curve]

SMILES	activity change, negative = inhibition	Potency
Cc1ccc(NC(=O)c2ccc3c(c2)[nH]c(=O)n3C(C)C)cc1		inconclusive: 37.9 µM [inhibitor, partial curve, poor fit]
Cc1ccc(NC(=O)c2cnc(SCC(=O)N3CCCc4ccccc43)n(C)c2=O)cc1C		inconclusive: 37.9 µM [inhibitor, partial curve, poor fit]
O=C(CN1CCOc2ccccc21)NCc1ccc(F)cc1		inconclusive: 21.3 µM [inhibitor, partial curve, poor fit]
Cc1cc(C)cc(-n2ncc3c2CCCC3NC(=O)C2CCC2)c1 (stereo not given)		inconclusive: 23.9 µM [inhibitor, partial curve, poor fit]
O=C(O)c1c2c(nc3ccc(S(=O)(=O)N4CCC(C(=O)NC5CCCCCC5)CC4)cc13)CCCC2		inconclusive: 26.9 µM [inhibitor, partial curve, poor fit]
CCOc1ccc(N(C)S(=O)(=O)c2cc(-c3cnc(C)o3)ccc2OC)cc1	inactive: -13.9%	
CCOC(=O)N/N=C1\CCc2ccccc21		inconclusive: 21.3 µM [inhibitor, single point]
COc1ccc(/C=C/C(=O)Nc2cccc(F)c2)cc1		active: 0.849 µM
Cc1ccc(-c2nn3c(C)nnc3c3ccccc23)cc1S(=O)(=O)NC(C)(C)CO		inactive
Cc1ccc2cc3c(nc2c1)N(Cc1ccco1)CC3		active: 19 µM
COc1cc2c(cc1OC)-c1cc(OCc3ccccc3Cl)nc(=O)n1CC2		inconclusive: 23.9 µM [inhibitor, partial curve]
O=C(/C=C/Nc1ccccc1F)c1ccc(Br)cc1		active: 0.478 µM
Cc1noc(C)c1C(=O)Nc1nc2ccc(F)cc2s1		active: 4.26 µM
Fc1ccc(N/N=C(/c2ccccc2)c2ccccn2)cc1		inconclusive: 21.3 µM [inhibitor, single point]
O=C(O)c1cc(-c2ccc(O)cc2)on1	inactive: 2.73%	
CN(CC(=O)O/N=C(\N)c1ccc(Br)cc1)S(=O)(=O)c1ccccc1		inconclusive: 26.9 µM [inhibitor, partial curve]
Cc1ccnc(NC(=O)c2ccc(COc3ccc(Cl)cc3)o2)c1		inconclusive: 23.9 µM [inhibitor, single point]
CCCCc1ccc(NC(=O)Nc2cc(C)nn2C)cc1		inconclusive: 26.9 µM [inhibitor, partial curve, poor fit]
S=C(Nc1ccccc1)N1CCN(C(=S)c2ccccc2)CC1		inconclusive: 26.9 µM [inhibitor, single point]
Cc1c(Cc2ccc3c(c2)OCO3)sc(NC(=O)c2cccc3ccccc23)c1C(N)=O		inconclusive: 19 µM [inhibitor, single point]
C=CCOc1ccc(/C=C/C(=O)OCC(=O)NCCc2ccccc2)cc1		inconclusive: 16.9 µM [inhibitor, partial curve, poor fit]
CCOc1ccc(C(=O)Nc2ccc(N3CCN(C)CC3)cc2)cc1[N+](=O)[O-]		inconclusive: 26.9 µM [inhibitor, partial curve, poor fit]
